About 200 (0.44%) of roughly 45,000 compounds were called active. Inconclusive results (about 7%) are left out. Calls follow the shape of the dose curve; as a rule, active = well fitted activation curve with a large enough effect; inconclusive = small, poorly fitted or top-dose-only effect; inactive = no such curve, though single readings can be large or run the other way. Some of the results follow.
Test: qHTS of TDP-43 Inhibitors: NCGC Sytravon Library Screen; also: 0% is about no effect; nearly all actives have a fitted effect of over 55% in size
Settings: yeast TDP-43 toxicity rescue, BacTiter-Glo growth, 24 h; series mostly up to 46.1 µM; growth rescue (activation): at the top concentration
In short: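 TDP-43-expressing yeast, pregrown in raffinose, seeded at OD600 0.02 in galactose medium with compound for 24 hr at 30 deg C. Growth read by BacTiter-Glo luminescence, so rescue of toxicity appears as activation.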

| Compound | growth rescue (activation) |
| --- | --- |
| COc1ccc(S(=O)(=O)N2CCCCC2)cc1NC(=O)c1ccc2c(c1)OCO2 | inactive: 10.7% |
| CC1(C)CC(=O)C2=C(C1)OC(N)=C(C#N)[C@@H]2c1ccccc1[N+](=O)[O-] | inactive: 13.9% |
| Cn1c(=O)c2c(ncn2CC(=O)N/N=C/C(Br)=C/c2ccccc2)n(C)c1=O | inactive: 25.8% |
| CN(C)S(=O)(=O)c1cccc(NC(=O)COc2ccc(S(=O)(=O)N3CCOCC3)cc2Cl)c1 | inactive: -2.6% |
| COCCNC(=O)/C(=C/c1ccccc1Cl)c1ccccc1 | inactive: 0.805% |
| COc1cc(C(=O)NNC(=O)Nc2ccc([N+](=O)[O-])cc2)cc(OC)c1OC | inactive: 4.24% |
| [O-][n+]1c2c(nn1-c1ccc(Cl)c(Cl)c1)-c1nonc1CC2 | inactive: 0.457% |
| O=C(CC12CC3CC(CC(C3)C1)C2)N/N=C/c1ccc([N+](=O)[O-])o1 | inactive: 5.3% |
| Cc1ccccc1C(=O)Nc1ccnn1C1CCN(Cc2cnn(C(C)C)c2)CC1 | inactive: -1.41% |
| O=Cc1ccc(OCc2cn3ccccc3n2)cc1 | inactive: -8.21% |
| O=C(CCCN1C(=O)/C(=C/c2cccs2)SC1=S)Nc1cccc(C(=O)O)c1 | inactive: -5.81% |
| CC(NC(=O)Cn1c(=O)oc2cc(S(=O)(=O)N3CCCCCC3)ccc21)c1ccccc1 (stereo unspecified) | inactive: -1.29% |
| O=c1cc(-c2ccc3c(c2)OCCO3)oc2ccc(Cl)cc12 | inactive: 18.7% |
| CC(=O)N(C)c1ccc(NC(=O)C(Sc2ccccc2)c2ccccc2)cc1 (stereo unspecified) | inactive: 8.25% |
| CS(=O)(=O)c1cccc(NC(=O)C2CC2)c1 | inactive: 3.45% |
| Cc1nn(-c2ccccc2)c(Cl)c1/C=N/NC(=O)c1cccc(S(=O)(=O)N2CCCC2)c1 | inactive: -0.561% |
| CCOC(=O)C1=C(C)N=c2s/c(=C/c3cccc([N+](=O)[O-])c3O)c(=O)n2C1c1ccccc1 (stereo unspecified) | inactive: -14.9% |
| O=C(c1cc(-c2ccc(F)cc2)nc2ccccc12)N1CCC1 | inactive: 20% |
| Cc1nc(Nc2ccc(O)cc2)c2c3c(sc2n1)CCCC3 | inactive: 15.3% |
| COc1cc(CNCCc2ccccc2)ccc1OCC(N)=O | inactive: -24.4% |
| CCN(CC)c1ccc2nc3ccccc3[n+](CC)c2c1 | inactive: -54.2% |
| Cc1ccc2nccc(C(=O)N3CCCC(N4CCN(c5ccc(F)cc5)CC4)C3)c2c1 (stereo unspecified) | inactive: -2.5% |

| Compound | growth rescue (activation) |
| --- | --- |
| COc1cccc(CN2CC(C(=O)NC3CCC3)CCC2=O)c1 (stereo unspecified) | inactive: 1.21% |
| CCCc1nc2ccccc2n1C(=S)SC | inactive: 10.3% |
| CC1CCCN(C(=O)C2CCN(S(=O)(=O)c3cccc4nonc34)CC2)C1 (stereo unspecified) | inactive: 14.5% |
| COc1ccc(CCNC(=O)C23CCC(C)(C(=O)C2Br)C3(C)C)cc1OC (stereo unspecified) | inactive: -15.2% |
| Cc1ccc(C(=O)NNC(=O)CSc2nnc3ccccn23)cc1 | inactive: 5.26% |
| COc1cc(NC(=O)c2[nH]c(C)c(C(C)=O)c2C)cc(OC)c1OC | inactive: 5.64% |
| Cc1ccc(NC(=O)COC(=O)/C=C/c2cccs2)cc1 | inactive: -2.94% |
| CCOc1cc(/C=C(\C#N)C(=O)Nc2cccc(C(=O)O)c2)cc(Br)c1OC(=O)c1ccc(OC)cc1 | inactive: 7.08% |
| COc1ccc(CC2(CO)CCN(CC3=Cc4cc(Cl)ccc4OC3)CC2)cc1 | inactive: -1.15% |
| COc1ccccc1N(C(=O)c1ccco1)C(C(=O)NC1CCCCC1)c1cc(OC)c(OC)c(OC)c1 (stereo unspecified) | inactive: 16.6% |
| CCC1CC(/C(C)=N/NC(N)=O)OC1=O (stereo unspecified) | inactive: 13.2% |
| CCN(CC)S(=O)(=O)c1ccc(N2CCCCC2)c(NC(=O)/C(C#N)=C/c2ccc(OC)cc2)c1 | inactive: 24.2% |
| COC(=O)c1sc(N)c(C(=O)OC)c1COC(=O)[C@@H](NS(=O)(=O)c1cccc(Cl)c1)C(C)C | inactive: 14.1% |
| O=C(COC(=O)C1=NN(c2ccccc2)C(=O)CC1)NCc1ccccc1Cl | inactive: 19.1% |
| CCOC(=O)c1cnn2cc(-c3[nH]ncc3[N+](=O)[O-])cnc12 | inactive: 9.23% |
| Cc1ccc(S(=O)(=O)NNC(=O)C(=O)NNc2ccccn2)cc1 | inactive: 19.2% |
| COc1ccc(NC(=O)CN2CCN(CC(=O)Nc3ccc(F)cc3F)CC2)cc1 | inactive: -0.0599% |
| Cc1cc(NC(=O)c2cc(-c3ccc(Br)cc3)on2)no1 | inactive: -0.868% |
| c1ccc2c(c1)CCN(C1=Nc3cccc4cccc1c34)C2 | inactive: -11.8% |
| CCc1ccc(OC2(C)CCN(Cc3ccc(SC)cc3)C2)cc1 (stereo unspecified) | inactive: 18.8% |
| CC1(C)CC(=O)/C(=C(\O)CCCN2C(=O)c3ccccc3C2=O)C(=NCC(=O)O)C1 | inactive: 2.17% |
| Cc1cccc(Nc2nnc(SCc3cc(=O)n4cc(C)ccc4n3)s2)c1 | inactive: -0.537% |

| Compound | growth rescue (activation) |
| --- | --- |
| COc1ccc(OCC(O)Cn2c(N3CCCCC3)nc3c2c(=O)n(C)c(=O)n3C)cc1 (stereo unspecified) | inactive: 12% |
| CCOC(=O)C1CCCN(c2c(NCCc3ccc(C)cc3)c(=O)c2=O)C1 (stereo unspecified) | inactive: 15.4% |
| Cc1ccc(O)c(C(=O)c2cnc(/N=C(\N)N(C)C)nc2)c1 | inactive: 10.8% |
| COc1ccc(N(C(=O)c2cnccn2)C(C(=O)NC2CCCCC2)c2ccc(O)cc2)cc1 (stereo unspecified) | inactive: 2.59% |
| O=C(CSc1cccc2cccnc12)N/N=C/c1ccncc1 | inactive: -8.26% |
| CC(=O)Nc1cccc(-c2ccnc3c2CC(C)(C(=O)NC(C)C)O3)c1 (stereo unspecified) | inactive: 7.25% |
| CCC(C(=O)OCC(=O)Nc1cc(C)ccc1OC)c1ccccc1 (stereo unspecified) | inactive: 21.9% |
| O=C(NCCCO)c1cc2c([nH]c3ccccc32)c(-c2ccccc2)n1 | inactive: 0.21% |
| COc1ccc(CN(C)C(=O)c2ccc(Oc3ccccc3)cc2)cc1F | inactive: 13.2% |
| CN(C)S(=O)(=O)c1cccc(NC(=O)COC(=O)c2cc3ccccc3oc2=O)c1 | inactive: -27% |
| COc1cccc(-n2c(SCC(=O)N3c4ccccc4CC3C)nnc2-c2ccco2)c1 (stereo unspecified) | inactive: 4.96% |
| O=C(CCc1c[nH]c2ccccc12)NCCOc1ccccc1 | inactive: -0.599% |
| COc1ccccc1N1CCN(c2nccc(C)n2)CC1 | inactive: 36.2% |
| CC(C)c1ccc(CC(=O)N2CCC2(C)C(=O)NS(=O)(=O)c2ccc(F)cc2F)cc1 (stereo unspecified) | inactive: 13% |
| CN(C)/C=C(/C(=O)c1ccc(Cl)cc1)n1cncn1 | inactive: -0.397% |
| CC(OC(=O)c1ccccc1Oc1ccccc1)C(=O)NC1CC1 (stereo unspecified) | inactive: 22.1% |
| Cc1cccc(NS(=O)(=O)c2c(C)noc2C)c1 | inactive: 12.8% |
| Cc1cc(C(=O)NCC(=O)OCC(=O)Nc2ccc(OC(F)F)cc2)ccc1[N+](=O)[O-] | inactive: 17.3% |
| CN1CCN(NC(=O)c2cc(-c3ccc(Cl)s3)nc3ccccc23)CC1 | inactive: -4.58% |
| CCOc1ccc2nc(SCC(=O)NCC3CCCO3)c(C#N)cc2c1 (stereo unspecified) | inactive: 7.49% |
| Cc1ccc(NC(=O)Cc2nnc(SCC(=O)Nc3ccc(N4CCOCC4)cc3)n2C)cc1 | inactive: -3.25% |
| COc1ccc(CCNC(=O)Cc2cc(OC)c(OC)cc2Br)cc1OC | inactive: -11.9% |

From PubChem BioAssay AID1347073 (National Center for Advancing Translational Sciences (NCATS), 2019)
